# According to PubChem BioAssay AID1346428 (National Center for Advancing Translational Sciences (NCATS), 2018):
# Hit rate of the full screen: of about 48,000 compounds, about 1,200 (2.5%) were called active. Roughly 2% stayed inconclusive and do not appear here.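 Rule for the calls: active = activation of at least 60% and not above a set upper limit (about 1 call in 100 departs from these limits); inconclusive = activation of 40% to 60%, or above that upper limit; inactive = activation under 40%.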 This is one part of the list.
# Molecular target: Probable G-protein coupled receptor 32 (Homo sapiens) (UniProt O75388)
# Sequence of UniProt O75388 (O75388 whole entry, looked up): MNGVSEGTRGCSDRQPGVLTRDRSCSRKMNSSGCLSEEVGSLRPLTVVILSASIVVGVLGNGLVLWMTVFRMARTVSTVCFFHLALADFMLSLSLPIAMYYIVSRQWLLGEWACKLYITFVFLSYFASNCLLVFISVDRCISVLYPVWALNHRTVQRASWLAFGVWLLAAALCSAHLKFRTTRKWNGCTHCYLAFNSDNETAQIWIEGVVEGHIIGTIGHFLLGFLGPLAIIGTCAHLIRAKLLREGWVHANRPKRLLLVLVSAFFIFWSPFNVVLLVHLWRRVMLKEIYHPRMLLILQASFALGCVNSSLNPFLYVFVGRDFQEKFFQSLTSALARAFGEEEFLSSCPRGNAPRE
# Experiment: qHTS for Agonists of Human Resolvin D1 Receptor DRV1; note: 0% is about no effect
# Conditions: CHO-K1 GPR32 beta-arrestin PathHunter luminescence, 90 min; at 76.9 µM; hits give high values; zero percent set by DMSO-only wells
# How it was run: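 Cells are plated overnight, treated with compounds in DMSO for 90 minutes at 37 °C, and developed with PathHunter detection reagent for 1 hour before luminescence is read; signal reflects beta-arrestin binding to GPR32 in engineered CHO-K1 cells.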
row,SMILES,activation
1,Cc1ccc(CNC(=O)c2ccc3c(c2)N(Cc2ccccc2F)C(=O)c2ccccc2S3(=O)=O)cc1,inactive: -13.7%
2,COc1ccc(NC(=O)c2ccco2)cc1NC(=O)COc1ccc(C)cc1C,inactive: -0.854%
3,Cc1ccc(NC(=O)CSc2[nH]c(=O)ncc2C)cc1,inactive: -7.05%
4,COc1cccc(Cn2cc(S(=O)(=O)c3ccc(C)cc3)c(=O)c3cc4c(cc32)OCO4)c1,inactive: -11.5%
5,Cc1nc2ccccc2n1CCc1nc2c3ccccc3nc(SCC(=O)Nc3ccc(C(C)C)cc3)n2n1,inactive: -7.3%
6,O=C(Nc1nonc1-c1ccc(Br)cc1)c1ccco1,active: 71.1%
7,Cc1ccc(NC(=O)Cc2ccc(NC(=O)N3CCCCc4ccccc43)cc2)cc1,inactive: -21.7%
8,CCCc1ccc(NC(=O)C2CCN(c3cnccn3)CC2)cc1,inactive: 5.72%
9,Clc1ccc(CSc2nc3ncccc3[nH]2)cc1,inactive: 14.4%
10,Cc1cc(Cl)ccc1NC(=O)CN1C(=O)C(=O)c2ccccc21,inactive: -67.5%
11,CCN1CCN(C(c2ccccc2)c2c(O)cc(C)n(CCOC)c2=O)CC1 (configuration not stated),inactive: -8.56%
12,CSc1cccc(NC(=O)Cn2nnc(C(=O)NCCc3ccccc3)c2N)c1,inactive: -7.27%
13,COc1ccc(S(=O)(=O)Cc2ccc(C(=O)NC3CCCCC3)o2)cc1,active: 89.3%
14,CCCCC(=O)Nc1ccc(C(=O)OCc2cc(=O)n3nc(C4CC4)sc3n2)cc1,inactive: -3.27%
15,COC(=O)C1=C(c2ccccc2)c2ccccc2S(=O)(=O)N1CC(=O)Nc1ccccc1C(F)(F)F,inactive: -23.9%
16,Cn1c(=O)n(CCc2ccccc2)c(=O)c2c1nc1n2CCN1c1ccc(Cl)cc1,inactive: 8%
17,Cc1cccc(N2CCN(c3ccc(C(=O)O)cc3NC(=O)c3ccccc3F)CC2C)c1 (configuration not stated),inactive: 8.48%
18,C=CCN1CCc2nc(N)sc2CC1,inactive: 4.61%
19,CC(C(=O)Nc1ccccc1C(F)(F)F)n1nc(-c2ccccc2)c2c(c1=O)CCCC2 (configuration not stated),inactive: -2.99%
20,CC(=O)c1ccc(N2CCN(C(=O)Nc3cccc(F)c3)CC2)cc1,inactive: 1.42%
21,CCN(CC)c1ccc(C(=O)NCc2ccc3c(c2)CCN3C(C)=O)cc1,inactive: -19.9%
22,Cc1cc(C)c2c(-n3cccc3)c(C(=O)NCCc3ccccc3)sc2n1,inactive: 3.95%

row,SMILES,activation
1,CC(C)CC(=O)Nc1c(C(=O)N2CCN(c3ccccc3F)CC2)oc2ccccc12,inactive: -23.4%
2,COc1ccc(Br)cc1CNC(=O)c1ccc2c(c1)nc1n2CCCCC1,inactive: -4.16%
3,COc1cccc(C(=O)n2nc(-c3ccco3)nc2NCc2cccs2)c1,inactive: -15.2%
4,CCc1ccc(-c2cc3c(N4CCN(c5ccccc5)CC4)nccn3n2)cc1,inactive: 12.8%
5,Cc1cccc(CN2C(=O)c3ccccc3S(=O)(=O)c3ccc(C(=O)N4CCN(c5cc(C)ccc5C)CC4)cc32)c1,inactive: 20.4%
6,COc1ccc(NC(=O)N2CCN(c3cc(-c4noc(C)n4)ccc3C)CC2)c(OC)c1,inactive: -7.9%
7,COc1ccc(NS(=O)(=O)c2ccc(NS(=O)(=O)c3ccc4c(c3)OCCO4)cc2)cc1,active: 68.3%
8,COc1cccc(N2CCN(Cc3nnc(-c4ccc5c(c4)OCO5)o3)CC2)c1,inactive: 12.1%
9,CC(C)(C)C1CCc2c(sc(NC(=O)c3ccncc3)c2C(=O)Nc2ccccc2Cl)C1 (configuration not stated),inactive: 0.048%
10,Cc1cccc(-c2nc3nc(C)cc(N4CCN(c5ccccc5)CC4)n3n2)c1,inactive: -11.5%
11,CC(=O)N/N=C/c1ccc([N+](=O)[O-])o1,active: 68%
12,COc1ccc(N2CCN(C(=O)CCn3cnc4onc(-c5ccc(F)cc5)c4c3=O)CC2)cc1,inactive: -3.89%
13,COc1ccc(N(CC(=O)NCc2ccc(C)cc2)S(=O)(=O)c2c(C)[nH]c(=O)[nH]c2=O)cc1,inactive: -10.4%
14,Cc1cc(C)cc(N2CCn3c2nc2c3c(=O)n(CCc3ccccc3)c(=O)n2C)c1,inactive: 9.94%
15,Cc1c(C(=O)NCc2ccccc2Cl)sc2nc3n(c(=O)c12)CCC3,inactive: -11.5%
16,Cc1ccc(-c2nc3c4ccccc4n(Cc4cccc(Cl)c4)c(=O)n3n2)cc1,inactive: -8.93%
17,CCN1CCN(CCCNC(=O)Cn2nc(C)n3c(cc4cc(C)ccc43)c2=O)CC1,inactive: -10.4%
18,CCOC(=O)Cc1ccc(NC(=O)N2CC(CC)Oc3ccccc32)cc1 (configuration not stated),inactive: -29.4%
19,CCc1ccc(S(=O)(=O)c2nnn3c2nc(N2CCCC(C)C2)c2cc(Cl)ccc23)cc1 (configuration not stated),inactive: -3.76%
20,COc1ccc2nc(N3CCN(C(=O)c4ccco4)CC3)sc2c1,inactive: 13.7%
21,COc1ccc(OC)c(CNC(=O)C2COc3ccccc3C2)c1 (configuration not stated),inactive: -20.2%
22,O=C(CCc1ccc(O)cc1)c1c(O)cc(O)cc1O,inactive: 6.04%

row,SMILES,activation
1,COc1ccc2nc(NC(=O)c3ccc(S(=O)(=O)N4CCCC(C)C4)cc3)sc2c1 (configuration not stated),inactive: 0.119%
2,CC1=C(C(=O)Nc2ccccc2C)C(c2ccccn2)n2nc(SCc3ccccc3F)nc2N1 (configuration not stated),inactive: -9.82%
3,O=C(CSc1nc(=O)n(Cc2ccco2)c2c1CCC2)NCc1ccc(F)cc1,inactive: -9.03%
4,Cc1nc2nc(NC(=O)c3ccc(Cl)cc3)[nH]n2c(=O)c1Cc1ccccc1,inactive: 1.88%
5,CCc1ccc(NC(=O)CSc2nc(=O)n(Cc3ccco3)c3c2CCC3)cc1,inactive: -14.1%
6,Cc1ccc(S(=O)(=O)c2nnn3c2nc(N2CCN(c4ccccc4F)CC2)c2ccccc23)cc1C,inactive: -6.46%
7,O=c1[nH]c(SCc2ccc(Br)cc2)nc2c1CCCC2,inactive: 35.7%
8,CC(NC(=O)Cn1c(-c2cccs2)cc2cc(F)ccc21)c1ccccc1 (configuration not stated),inactive: -14.3%
9,O=C(NC1CC(=O)N(c2ccc(Cl)cc2)C1)c1cccs1 (configuration not stated),inactive: -1.38%
10,CCC(C)NC(=O)c1c(-c2ccccc2)c(-c2ccccc2)nn(C)c1=O (configuration not stated),inactive: -7.13%
11,COc1ccc(-c2cc(C(=O)Oc3ccc(C)c(C)c3)c3ccccc3n2)cc1,inactive: -37.9%
12,Cc1cccn2c(=O)c3cc(C(=O)NCc4ccccc4Cl)sc3nc12,inactive: -9.63%
13,C[C@H]1O[C@@H](n2cc(F)c(=O)[nH]c2=O)[C@H](O)[C@H]1O,inactive: 3.91%
14,O=C(Cn1c(=O)n(Cc2ccc3c(c2)OCO3)c(=O)c2ccc(C(=O)NC3CCCCC3)cc21)Nc1ccccc1F,inactive: -21.8%
15,CCOC(=O)c1cc(-c2ccccc2)n(CCCC(=O)Nc2ccc(C)cc2C)c1C,inactive: -17.9%
16,Cc1ccc(C(=O)NC2(C(F)(F)F)C(=O)Nc3c2c(=O)[nH]c(=O)n3CCc2ccccc2)cc1 (configuration not stated),inactive: 5.37%
17,Oc1cccc(Nc2ncnc3sc4c(c23)CCCC4)c1,active: 66.2%
18,CS(=O)(=O)N1CCc2cc(C(=O)NCc3ccccc3)ccc21,inactive: 6.73%
19,Cc1cccc(-n2c3nc(=O)n(C)c(=O)c-3cc3ccc(Cl)cc32)c1C,inactive: -7.34%
20,Cc1noc2ncnc(NCc3cccc(Cl)c3)c12,inactive: 30.9%
21,Cc1c(C(=O)N2CCC(C(=O)Nc3ccc(F)cc3)CC2)sc2nc[nH]c(=O)c12,inactive: -3.78%
22,CC(C)(C)C(=O)N1CCN(c2nc3c(F)cccc3s2)CC1,inactive: -0.705%

row,SMILES,activation
1,CCOc1ccc(-n2c(SCC(=O)N3CCCCC3)nc3c([nH]c4ccccc43)c2=O)cc1,inactive: 18.7%
2,Cc1ccc2c(=O)c(C(=O)c3ccccc3)cn(CC(=O)Nc3ccccc3)c2n1,inactive: 12.9%
3,COc1cccc(-c2nnc3n(Cc4ccccc4Cl)c(=O)c4ccccc4n23)c1O,inactive: -3.2%
4,O=C(NCc1ccc2c(c1)CCN2C(=O)c1ccncc1)c1ccc(Cl)cc1,inactive: -7.01%
5,CC(C)Oc1ccc(CNC(=O)CCCn2c(=O)c3cccn3c3cccnc32)cc1,inactive: -9.28%
6,O=C(c1ccccc1)C(O)c1ccccc1 (configuration not stated),inactive: -13.4%
7,CCOC(=O)C(Cc1c[nH]c2ccccc12)NC(=O)COc1ccc(Cl)cc1 (configuration not stated),inactive: 32%
8,COCCN(CCOC)C(=O)c1cc2c(=O)n3ccccc3nc2n1C,inactive: -7.69%
9,Cc1c(Cl)cccc1NC(=O)CN1C(=O)CCn2nc(-c3cccn3C)cc21,inactive: 0.914%
10,COc1cccc(C(=O)NC2=NC(c3ccc(N(C)C)cc3)CC(=O)N2)c1 (configuration not stated),inactive: 9.12%
11,O=C(CSc1nc(-c2ccccc2)cn1-c1ccccc1)Nc1ccccc1,inactive: -27.8%
12,COc1cc(-c2nc3ccc(C)cn3c2Nc2ccc(Cl)cc2)ccc1O,inactive: 28.8%
13,CCn1c(NCc2cccc(Cl)c2)nc2ccccc21,inactive: 32.5%
14,O=C(NCCCN1CCCCC1)c1cc(Sc2ccc(Cl)cc2)nc2ccccc12,inactive: -23.3%
15,Cc1c[nH]c2ccccc12,inactive: -2.91%
16,Cc1cc(C)c(C(=O)Nc2ccccc2)c(SCC(=O)Nc2ccc(Br)cc2C)n1,inactive: -17.2%
17,O=c1[nH]c2cc([N+](=O)[O-])c([N+](=O)[O-])cc2[nH]c1=O,inactive: 3.21%
18,O=S(=O)(c1ccc(Br)cc1)c1nnn2c1nc(NCc1cccs1)c1sccc12,inactive: -12.8%
19,CC(=O)c1ccc(N2CCN(C3C(=O)c4ccccc4N3C(C)=O)CC2)cc1 (configuration not stated),inactive: -28.3%
20,COc1ccc(-c2cc(C(=O)NCCc3ccccc3)c3cc(C(C)C)ccc3n2)cc1,inactive: -20.7%
21,COc1ccc(-n2cc(C(=O)NCc3cccc(OC)c3)c3ccccc3c2=O)cc1,inactive: -5.79%
